PubChem BioAssay AID2675 (National Center for Advancing Translational Sciences (NCATS), 2010)
Among all 280,000 compounds or so, about 100 (0.036%) were called active. Inconclusive results, whose numbers are uncertain, are shown with a selection of clear calls. Calls come from the whole dose curve; as a rule, active = well fitted inhibition curve with a large enough effect in the signal ratio, with a control signal flat (not every such curve was filed as active); inconclusive = small, poorly fitted or top-dose-only effect, or effect the other way, or a change in a side signal; inactive = no such curve, though single readings can be large or run the other way; the % refers to the signal ratio. Potencies beside an inconclusive call are fits to weak or partial responses and may not hold up. A note “side channel” means that the fit belongs to a control or component signal, not to the main read-out.

Molecular target: Muscleblind-like protein 1 (Homo sapiens) (UniProt Q9NR56)
Sequence of UniProt Q9NR56 (Q9NR56 whole entry, looked up): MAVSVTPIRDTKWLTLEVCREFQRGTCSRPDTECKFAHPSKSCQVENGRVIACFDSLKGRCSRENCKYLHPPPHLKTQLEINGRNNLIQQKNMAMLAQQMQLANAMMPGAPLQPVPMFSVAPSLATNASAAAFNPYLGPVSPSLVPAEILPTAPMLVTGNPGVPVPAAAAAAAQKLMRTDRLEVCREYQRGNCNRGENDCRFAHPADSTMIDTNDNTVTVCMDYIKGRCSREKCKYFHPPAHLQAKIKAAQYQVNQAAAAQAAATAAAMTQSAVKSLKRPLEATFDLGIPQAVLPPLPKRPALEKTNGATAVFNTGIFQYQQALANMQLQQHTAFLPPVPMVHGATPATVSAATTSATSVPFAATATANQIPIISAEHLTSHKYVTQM
Assay: qHTS Assay for Inhibitors of MBNL1-poly(CUG) RNA binding
Details: TR-FRET MBNL1-His/biotin-(CUG)12 binding, 665/545 ratio; activity change, negative = inhibition: at 57.5 µM (top of the series)
In short: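 Inhibition of protein-RNA binding appears as loss of TR-FRET between terbium anti-His antibody on MBNL1-His and streptavidin-XL665 on biotin-(CUG)12. Activity is normalized to buffer-only and uninhibited-complex controls.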
% is set by controls: 0 for no effect and ±100 for the full control effect; potency is the fitted concentration of half-maximal effect; tags give direction and shape of the fitted curve or compound fluorescence and quenching.

SMILES	Potency	activity change, negative = inhibition
Cc1cccn2c(=O)c3cc(C(=O)NC4CCCC4)c(=N)n(CC4CCCO4)c3nc12 (stereo not drawn)	inconclusive: 3.98 µM [quencher, side channel, full curve]	
Cc1ccc(N=Nc2ccc(N)cc2C)c(S(N)(=O)=O)c1	inconclusive: 12.6 µM [quencher, side channel, partial curve]	
O=C(Nc1ccc([N+](=O)[O-])cc1)C(=O)Nc1cccc(C(=O)O)c1	inconclusive: 17.8 µM [quencher, side channel, partial curve]	
Cn1cccc1/C=N/n1c(-c2ccccc2)n[nH]c1=S		inactive: 7.61%
COc1ccc2c(/C=C/c3cc[n+](C)cc3)c[nH]c2c1	inconclusive: 7.08 µM [quencher, side channel, partial curve]	
O=C(NCCN1CCOCC1)c1sc2cc(Cl)ccc2c1Cl	inconclusive: 20 µM [quencher, side channel, single point]	
c1ccc(CCc2nc3ccccc3[nH]2)cc1		inactive: -7.42%
CC(=O)NC(c1cccc([N+](=O)[O-])c1)c1ccc2cccnc2c1O (stereo not drawn)	inconclusive: 15.8 µM [quencher, partial curve]	
O=S(=O)(NCc1ccc2c(c1)OCO2)c1cccc2nsnc12	inconclusive: 8.91 µM [quencher, side channel, partial curve]	
Cc1coc2c(C)c3oc(=O)c(CCC(=O)N4CCC(C(=O)NCCCC(=O)O)(c5ccccc5)CC4)c(C)c3cc12		inactive: -3.27%
Cc1cc(Cl)c2oc(C(=O)N(C)CCc3cnn(C)c3)c(C)c2c1		inactive: 5.85%
Cc1cc(/C=N/NC(=O)CC#N)c(C)n1-c1ccc([N+](=O)[O-])cc1	inconclusive: 25.1 µM [quencher, side channel, partial curve]	
CCN1C(=NCc2cc(OC)c(OC)c(OC)c2)N[C@@H](c2ccccc2)[C@H](C(=O)OC)[C@H]1C	inactive	
O=C(Oc1cccc2cccnc12)c1cccc([N+](=O)[O-])c1		inactive: 21.2%
O=C(CCS(=O)(=O)c1cccc2nsnc12)N1CCN(c2ccccc2F)CC1	inconclusive: 14.1 µM [quencher, side channel, partial curve]	
CCCN1C/C(=C/c2ccc3c(c2)OCO3)C(=O)/C(=C/c2ccc3c(c2)OCO3)C1	inconclusive: 0.891 µM [fluorescent, side channel, single point]	
CCN(Cc1ccccc1)C(c1cc2cc(C)ccc2[nH]c1=O)c1nnnn1CCOC (stereo not drawn)	inconclusive: 28.2 µM [quencher, side channel, single point]	
COC(=O)N/N=C/c1ccc(-c2ccc(Cl)cc2Cl)o1	inconclusive: 15.8 µM [quencher, side channel, single point]	
O=[N+]([O-])c1cccc(-c2ccc(C(=S)N3CCOCC3)o2)c1	inconclusive: 3.55 µM [quencher, side channel, full curve]	
CCOC(=O)c1sc(=S)n(-c2cc(F)ccc2F)c1N	inconclusive: 14.1 µM [quencher, side channel, partial curve]	
CC(=O)c1ccccc1OC(=O)c1ccc([N+](=O)[O-])o1	inconclusive: 17.8 µM [quencher, side channel, partial curve]	

SMILES	Potency	activity change, negative = inhibition
CCc1cc(C(=O)N/N=C/c2ccc(O)cc2O)c2ccccc2n1		inactive: 2.26%
O=C(Nc1ccc2c(c1)CCC2)c1cnn2c1NC(c1ccco1)CC2C(F)(F)F (stereo not drawn)		inactive: -4.07%
Cc1ccc(/C=N/NC(=O)c2ccoc2C)o1	inconclusive: 39.8 µM [quencher, single point]	
CCCCc1c(C)c(C#N)c2nc3ccccc3n2c1NCCN(C)C	inconclusive: 17.8 µM [quencher, side channel, partial curve]	
N=c1c(S(=O)(=O)c2ccccc2)cc2c(=O)n3ccccc3nc2n1CC1CCCO1 (stereo not drawn)	inconclusive: 3.16 µM [quencher, side channel, full curve]	
O=c1[nH]c(C2CCN(S(=O)(=O)c3ccccc3)CC2)nc2c1nnn2Cc1ccccc1		inactive: -14.7%
O=C(N/N=C\C=C\c1ccc2c(c1)OCO2)c1cccnc1	inconclusive: 15.8 µM [quencher, partial curve]	
CCCCNC(=S)NNC(=O)c1nn(C)cc1Cl	inconclusive: 39.8 µM [quencher, side channel, single point]	
O=C(Nc1ccnn1C1CCN(CCCc2ccccc2)CC1)c1ccccc1	inconclusive: 15.8 µM [quencher, side channel, partial curve]	
O=C1C(C=Nc2ccccc2O)=C(O)c2ccccc21	inconclusive: 12.6 µM [quencher, side channel, partial curve]	
CCCc1ccc(Oc2cn[nH]c2-c2ccc(O)c(C)c2O)cc1	inconclusive: 25.1 µM [quencher, side channel, single point]	
COc1ccc(-n2nc(C(=O)NCC(=O)NCCCN3CC(C)CC(C)C3)c3ccccc3c2=O)cc1OC (stereo not drawn)	inconclusive: 17.8 µM [quencher, side channel, partial curve]	
CCN1CCN(S(=O)(=O)c2cccc3nsnc23)CC1	inconclusive: 14.1 µM [quencher, side channel, partial curve]	
Cc1cnc(C(=O)OCC(=O)Nc2cc(Cl)cc(Cl)c2)cn1	inconclusive: 31.6 µM [fluorescent, single point]	
Cc1ccccc1Nc1ccc([N+](=O)[O-])cn1	inconclusive: 4.47 µM [quencher, side channel, full curve]	
CCN(CC)CCN1C(=O)C(O)=C(C(=O)c2cc3ccccc3o2)C1c1cccnc1 (stereo not drawn)		inactive: 67.1%
O=C(CN1CCN(c2ccccc2)CC1)Nc1cccc(C(F)(F)F)c1		inactive: -5.57%
CCOC(=O)COc1cc(Br)c(/C=N/Nc2ccccc2)cc1OC		inactive: -2.34%
Oc1c(C=C2N=c3ccccc3=N2)sc(=S)n1C1CCCCC1	inactive	
Cc1ccc(-n2c(O)c(C=NCc3ccccn3)c3ccccc3c2=O)cc1C	inconclusive: 2.82 µM [quencher, side channel, partial curve]	
N#CC1CC(c2ccccc2)Nc2cc(Cl)ccc2N1 (stereo not drawn)	inconclusive: 39.8 µM [quencher, side channel, single point]	

SMILES	Potency	activity change, negative = inhibition
O=C(CSc1nc2c(c(=O)n1-c1ccc(Br)cc1)SCC2)NCc1ccco1	inconclusive: 14.1 µM [quencher, side channel, partial curve]	
CC(NC(=O)c1ccc(Br)cc1Br)c1ccccc1 (stereo not drawn)	inconclusive: 15.8 µM [inhibitor, single point]	
Cc1ccc(N2C(=O)c3ccc(C(=O)Nc4cccnc4)cc3C2=O)c(C)c1	inconclusive: 14.1 µM [quencher, side channel, partial curve]	
Cc1cc(C)c2nc(C(F)(F)F)c(C#N)c(N)c2c1		inactive: 17%
CNc1ccc(NC(C)=O)cc1[N+](=O)[O-]	inconclusive: 5.62 µM [quencher, side channel, partial curve]	
CCNc1nc(Oc2ccc(=O)[nH]n2)nc(SC)n1		inactive: 4.04%
CC1(C)CC(=O)C2=C(C1)NC1=C(C(=O)c3ccccc31)C2c1cc([N+](=O)[O-])ccc1O (stereo not drawn)	inconclusive: 14.1 µM [quencher, side channel, partial curve]	
O=C(CCCC(=O)OCC(Cl)=C(Cl)Cl)Nc1ccccc1	inconclusive: 0.0891 µM [fluorescent, side channel, full curve]	
Cc1cccc(C)c1NC(=O)CSc1ccc([N+](=O)[O-])cn1	inconclusive: 11.2 µM [quencher, side channel, partial curve]	
CN(C)C(CNC(C(=O)Nc1ccc([N+](=O)[O-])cc1Br)c1ccccc1)c1ccccc1 (stereo not drawn)	inconclusive: 14.1 µM [quencher, partial curve]	
O=C(O)CC1S/C(=N/N=C/C=C/c2ccccc2[N+](=O)[O-])NC1=O (stereo not drawn)	inconclusive: 22.4 µM [quencher, side channel, single point]	
Cn1c(-c2ccccc2)cc2c3no[n+]([O-])c3ccc21		inactive: 5.23%
CCOCCCn1c(=NC(C)=O)c(C#N)cc2c(=O)n3ccccc3nc21	inconclusive: 3.98 µM [quencher, side channel, partial curve]	
O=C(O)CCCNCc1ccccc1F	inconclusive: 7.94 µM [inhibitor, single point]	
O=C(Nc1ncc([N+](=O)[O-])s1)C1CCN(S(=O)(=O)c2cnc[nH]2)CC1	inconclusive: 10 µM [quencher, side channel, partial curve, poor fit]	
COc1ccc(NCc2nnc(SCC(=O)c3ccc(OC)cc3)n2C)cc1	inconclusive: 8.91 µM [quencher, side channel, partial curve]	
CN(C)S(=O)(=O)N1CCN(c2ccccc2Cl)CC1		inactive: -1.52%
O=C(c1ccccc1)N1N=C(c2ccccc2)CC1c1ccccc1O (stereo not drawn)		inactive: -5.87%
CC1CC2(CCCCC2)Nc2ccc3ccccc3c21 (stereo not drawn)	inconclusive: 20 µM [quencher, side channel, single point]	
COc1ccc(/C=C(\NC(=O)c2ccc(C)cc2)C(=O)Nc2ccc(C(=O)O)cc2)cc1	inconclusive: 28.2 µM [quencher, side channel, single point]	
Cc1nccn1CCCN1C(=O)CNC1=S	inconclusive: 39.8 µM [quencher, side channel, single point]	
